The whole screen tested about 48,000 compounds, of which about 120 (0.25%) were called active. Not shown: some 4% with an inconclusive outcome. Calls follow the shape of the dose curve; as a rule, active = well fitted activation curve with a large enough effect; inconclusive = small, poorly fitted or top-dose-only effect, or another doubt; inactive = no such curve, though single readings can be large or run the other way. The list shows a part of the results.
Assay: Primary qHTS for Identification of Small Molecule Activators of Huntingtin-Antisense Promoter Activity; also: nearly all actives have a fitted effect of over 55% in size
Conditions: HEK293 HTT-AS promoter firefly luciferase reporter, 24 h; series mostly up to 57.5 µM; activity change, positive = activation: at the top concentration
How it was run: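 HEK293 luciferase promoter-reporter cells (2,500/well) plated 24 h, then compounds added at up to 57.5 uM final for 24 h at 37 °C. Firefly luminescence by Dual-Glo, normalized to vehicle (0%) and zero RLU (-100%).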

Activity change, positive = activation, inactive:
COc1ccccc1CNC(=O)CSc1cc(=O)n(C)c2ccccc12 27.3%
COc1ccc(CNC(=O)c2cnc(N3CCCC3)nc2C)c(OC)c1 1.62%
CCOC(=O)c1cnc2ccc(OC)cc2c1Nc1ccc(OCc2ccccc2Cl)cc1 -46.2%
Cc1ccc(NC(=O)CCC(=O)N2Cc3ccccc3Oc3ncccc32)cc1Cl -21.1%
COc1ccccc1CNC(=O)C(NS(=O)(=O)c1ccc2c(c1)CCN2C(C)=O)C(C)C (stereo not given) -24.9%
COc1ccc(-c2nc3sc(CCNC(=O)Cc4ccccc4)c(C)n3n2)cc1 10.5%
COc1ccc(C)cc1NC(=O)c1nnn(Cc2cccc(Br)c2)c1N -26.5%
COc1ccc(C2=NS(=O)(=O)N(C)C(C(=O)NC(C)c3ccccc3)=C2)cc1 (stereo not given) -15.3%
Cc1ccc2oc(C(=O)Nc3ccc(S(=O)(=O)N4CCCCC4C)cc3)cc(=O)c2c1 (stereo not given) -11.5%
CCN(CC)S(=O)(=O)c1ccc2c(c1)N(CC(=O)NCCCN1CCN(c3ccc(OC)cc3)CC1)C(=O)CO2 -7.87%
CCN(C(=O)CSc1nc2ccccc2n1CC(=O)N(C)C1CCCCC1)c1ccccc1 -25.8%
CCOC(=O)c1cc(-c2ccccc2)n(CCC(=O)NCCc2ccccc2)c1C -21.1%
CCc1ccc(C(=O)c2cn(CC(=O)Nc3cc(OC)ccc3OC)c3ccc(Cl)cc3c2=O)cc1 -13.6%
CCc1c(C)sc2c1CCN(Cc1ccccc1C#N)C2c1ccccc1 (stereo not given) -4.93%
CCOc1ccc(CNC(=O)C2CCN(c3nc4ccccc4nc3C(F)(F)F)CC2)cc1OC 11.2%
CC1CCN(c2oc(-c3cccs3)nc2S(=O)(=O)c2ccccc2)CC1 8.29% [at 11.5 µM, percent change from vehicle, -100% = no light]
CCOC(=O)c1cnc2c(ccc3ccccc32)c1Nc1cccc(Cl)c1 5.82%
COc1ccc(CCNC(=O)c2cnc3sc(N4CCOCC4)nn3c2=O)cc1 -0.89%
Cc1nn(C)c2c1c(-c1ccccc1)cc(=O)n2Cc1ccc(F)cc1 -13.9%
COc1ccc(-n2cc(-c3ccc4c(c3)OCO4)n(CC(=O)Nc3cc(Cl)ccc3C)c2=O)cc1 8.01%
COc1ccc(-n2nc3ccc(NC(=O)c4cccc(OCCC(C)C)c4)cc3n2)cc1 -27.6%
NC(N)=Nc1nc(CSCC/C(N)=N/S(N)(=O)=O)cs1 -5.08%
Cc1cc(OCC(=O)N2CCC(c3nc4ccccc4s3)CC2)ccc1Cl -28%
O=C(CSc1ncc(-c2ccccc2)[nH]1)Nc1cccc(Br)c1 1.19%
Cc1ccc(-c2nnn3c2nc(NC2CCC(C)CC2)c2ccccc23)cc1 (stereo not given) 0.5%
CCOCCc1nnc(NC(=O)C(=O)c2cc(C)n(-c3ccc(Cl)cc3)c2C)s1 1.23%
Cc1cc2n(n1)CCCN2C(=O)Nc1ccc(F)c(Cl)c1 -5.74%
COC(=O)CN1C(C(=O)c2ccccc2)=C(OC(=O)c2ccc(F)cc2)c2ccccc2S1(=O)=O -16.4%
Cc1ccc(S(=O)(=O)c2cnc(SCC(=O)Nc3ccc4c(c3)OCCO4)[nH]c2=O)cc1C -5.41%
COc1cccc(-n2c(C)nc3cc(C(=O)O)ccc32)c1 15.4%
COc1cc2nc(NC(=O)c3ccc(S(=O)(=O)N4CCc5ccccc54)cc3)sc2cc1OC -40.9%
COc1cccc(-c2nc3c(C#N)c[nH]n3c2NC2CCCC2)c1OC -7.92%
CC1CCCCN1C(=O)c1ccc2c(c1)N(Cc1ccc(F)cc1)C(=O)c1ccccc1S2(=O)=O (stereo not given) -26.9%
CCN(CCCNC(=O)c1cc2c(=O)n(CC)c3ccccc3c2s1)Cc1ccccc1 -7.64%
CCOC(=O)N1CCN(Cc2nc3cc(NC(=O)c4ccccc4Cl)ccc3n2C(C)C)CC1 -54.4%
CC(=O)N1CCc2c(sc3c2c(=O)n(-c2ccccc2Cl)c(=O)n3Cc2cccc(C)c2)C1 -50.9%
CC(=O)c1cccc(NC(=O)CCc2c(C)nc3nc(CN)nn3c2C)c1 -8.78%
COc1ccccc1NC(=O)CSc1cn(CC(=O)N2CCCC2)c2ccccc12 -10.1%
CCC1CCCCN1C(=O)CSc1nnc(-c2ccc(OC)c(OC)c2)o1 (stereo not given) -11.7%
CCOC(=O)c1ccc(NC(=O)N2CC3CCCN3c3ccccc32)cc1 (stereo not given) -27.2%
Cc1cc(-c2ccccc2)nnc1NCCN1CCOCC1 -7.39%
O=C(Cn1cc(S(=O)(=O)N2CCCC2)c(S(=O)(=O)N2CCCC2)c1)Nc1ccc(F)cc1 3.69%
CCC(=O)N1CCc2cc(S(=O)(=O)NCc3ccc(C)cc3)ccc21 -21.3%
CCOc1ccc(NC(=O)c2ccc(F)c(S(=O)(=O)N(Cc3ccc(C(=O)OC)cc3)Cc3ccc(OC)c(OC)c3)c2)cc1 -9.09%
CCOc1ccc(N2CC(C)Cn3c2nc2c3c(=O)n(Cc3c(F)cccc3Cl)c(=O)n2C)cc1 (stereo not given) -7.51%
O=C(Cn1cc(C(=O)c2ccco2)c2ccccc21)Nc1ccccc1 -21.2%
CN(C)c1ncc(C(=O)NCc2ccc(Cl)cc2)cn1 -10.4%
COc1ccc(Cl)cc1Nc1ccc2cc(S(=O)(=O)N3CCCCC3)ccc2n1 -24.2%
CCc1ccccc1NC(=O)CN(c1ccc(OC)cc1)S(=O)(=O)c1c(C)n[nH]c1C -28.2%
Cc1ccc(NC(=O)c2cc(S(=O)(=O)NCCC3=CCCCC3)ccc2F)cc1C -75.9%
Cc1cccc(-c2nc3scc(CCNS(=O)(=O)c4ccc(F)cc4C)n3n2)c1 -24.3%
Cc1ccn2c(c1)nc(=O)c1cc(S(=O)(=O)N3CCCCC3)c(Cl)cc12 -2.02%
COc1ccc(Nc2sc(C(=O)c3ccccc3)c(N)c2C(=O)Nc2cc(C)ccc2C)c(OC)c1 -27.3%
CCc1ccc(NC(=O)c2sc3nc(C)c(C(=O)Nc4ccc(C)cc4C)c(-c4ccco4)c3c2N)cc1 -13.5%
Cc1oc(-c2ccccc2)nc1CNC(=O)NC1CCCCC1 -14.8%
Cc1c(NC(=O)c2cc(-c3ccc(Br)cc3)on2)c(=O)n(-c2ccccc2)n1C 3.62%
Cc1ccc(S(=O)(=O)c2nnn3c2nc(N2CCC(C)CC2)c2cc(Cl)ccc23)cc1C -13.1%
CCN1C(=O)c2ccccc2S(=O)c2ccc(C(=O)N3CCN(c4ccccc4)CC3)cc21 (stereo not given) -27.2%
COc1cccc(CNC(=O)CCCN2C(=O)CSc3c2c(C)nn3-c2ccccc2)c1OC -19.7%
CCOC(=O)c1c(NC(=O)/C=C/c2ccc(OCC)c(OC)c2)sc2c1CCC2 -5.81%
COc1ccc(OC)c(CNC(=O)c2cc3ccc4cccnc4c3[nH]2)c1 -2.65%
COc1ccc(-c2ccc3c(N4CCOCC4)nc(N4C[C@@H](C)O[C@@H](C)C4)nc3n2)cc1CO -23%
Cc1nn2c(=O)cc(COC(=O)c3ccc(NC(=O)COc4ccc(Cl)cc4)cc3)nc2s1 -30.6%
CC1CCN(S(=O)(=O)c2ccc3nc(NCc4ccc(F)cc4)ccc3c2)CC1 -36%
CCOc1ccc(CCNc2ncnc3onc(-c4ccc(Cl)cc4)c23)cc1 -67.6%
O=C(Cn1nnc2sc(-c3ccccc3)cc2c1=O)Nc1cccc(C(F)(F)F)c1 -5.1%
CC(C)(C)OC(=O)N1CCC(c2nnc(SCc3ccccc3F)o2)CC1 -28%
COc1ccc(C)cc1NC(=O)C(=O)NCCc1csc2nc(-c3ccccc3F)nn12 -1.16%
CCNC(=O)Nc1ccc(Oc2ncnc(N)c2C=NOC)cc1Cl -1.54%
COc1ccc(NC(=O)c2ccc(NC(=O)CCS(=O)(=O)c3cccs3)cc2)cc1OC -6.21%
CCOC(=O)c1cc(-c2ccccc2)n(CCC(=O)Nc2cc(OCC)ccc2OCC)c1C -21.9%
CCCCCn1c(CCCNC(=O)c2cccc(C)c2)nc2ccccc21 -30%
Cc1cccc(NC(=O)CN2C(=O)c3ccccc3Sc3ncccc32)c1C -16.6%
COc1ccccc1C(=O)OCc1cc(=O)n2nc(C3CCCCC3)sc2n1 8.71%
CCn1c(NCc2ccc(OC)c(OC)c2)nc2ccccc21 -37%
COc1ccc(CCNC(=O)CSC2=Nc3ccccc3C3=NC(CCC(=O)NCc4ccccc4)C(=O)N23)cc1OC (stereo not given) 4.13%
Cc1noc2ncnc(N3CCCC(C(=O)NC(C)C)C3)c12 (stereo not given) -16.3%
Cc1ccc(Cl)cc1N1CCN(CCCNc2ncnc3onc(-c4ccc(Cl)cc4)c23)CC1 -11.3%
Cc1cccc(CCNC(=O)C2CCN(c3ncnc4c3nc3n4CCCCC3)CC2)c1 4.28%
COc1ccc(-c2nc3scc(CCNS(=O)(=O)c4ccc(F)c(C(F)(F)F)c4)n3n2)cc1OC -46.6%
CCCC(=O)C1=C(c2ccc(C)cc2)N(C(=O)CCC)n2cnnc2S1 24.5%
CCN1CCN(c2cc(C)c3cc(NC(=O)c4cccc(Cl)c4)ccc3n2)CC1 28.5%
Cc1ccc(NC(=O)c2cnc(N3CCCCC3)c3ccccc23)cc1Cl -17.7%
COC(=O)c1scc(-c2ccc(C)cc2)c1S(=O)(=O)Nc1cccc(Cl)c1C -33.1%
Cc1n[nH]c(C)c1CCc1nc2c3ccccc3nc(SCC(=O)Nc3ccc(F)cc3)n2n1 -45.3%
Cc1ccc(OCCn2cc(C(=O)c3ccco3)c3ccccc32)cc1C -31.1%
O=C(CCCCn1c(=O)c2ccccc2n(CC(=O)Nc2ccccc2)c1=O)NCc1ccccc1Cl -10%
Cc1cccc(N2CCN(S(=O)(=O)c3ccc4oc(=O)c5ncn(C)c5c4c3)CC2)c1C -10.1%
CCc1nnc2c3ccccc3nc(Nc3ccccc3OC)n12 -14.9%
Cc1c(C)n(Cc2ccccc2)c2ccc(C(=O)NCc3ccc(OC(C)C)cc3)cc12 -22.5%
CCN(CC)CCCNC(=O)C1CCN(S(C)(=O)=O)CC1 3.95%
CCOC(=O)c1sc(NC(=O)C(C)Sc2nc(-c3ccccc3)cc(C(F)(F)F)n2)c(C(=O)OC)c1C (stereo not given) 2.53%
CCOc1ccc(C(=O)Nc2ccc(-c3nc4cc(C)ccc4o3)cc2)cc1 27.5%
Cc1oc(-c2ccc(C(=O)Nc3cccc(C(F)(F)F)c3)cc2)nc1CSc1ccccc1 -88.7%
COc1ccc(Nc2nc3ccc(Cl)cc3n3nnnc23)cc1OC 13.7%
